PubChem BioAssay AID624202 (National Center for Advancing Translational Sciences (NCATS), 2012)
The campaign covered roughly 380,000 compounds. About 4,000 (1.1%) were called active. This list was built around the results that the source calls inconclusive (neither active nor inactive); the mix of calls is not that of the screen. Calls come from the whole dose curve; as a rule, active = well fitted activation curve with a large enough effect; inconclusive = small, poorly fitted or top-dose-only effect; inactive = no such curve, though single readings can be large or run the other way. Potencies beside an inconclusive call are fits to weak or partial responses and may not hold up.
Potency is the fitted concentration of half-maximal effect; tags give direction and shape of the fitted curve.

Test: qHTS Assay to Identify Small Molecule Activators of BRCA1 Expression; note: nearly all actives have a fitted effect of over 80% in size
Conditions: MCF7-BRCA1-FFLuc reporter, luminescence, 48 h; activation: at 46.1 µM (top of the series), scaled: vehicle 0%, 10 µM genistein 100% unless noted
Excerpt: Functionally, BRCA1 has been implicated in a wide array of cellular activities, including DNA damage repair, cell-cycle checkpoint control, growth inhibition, apoptosis, transcriptional regulation, chromatin remodeling, protein ubiquitylation, and mammary stem cell self-renewal and differentiation. Reduction in BRCA1 levels is associated with an increase in tumor growth and resistance to anti-estrogenic agents, such as tamoxifen, while an increase in BRCA1 expression leads to cell growth arrest and apoptosis. […] The frequent loss of BRCA1 expression in invasive breast cancers in the absence of somatic mutation has been attributed to numerous mechanisms, including hypermethylation of the BRCA1 promoter, exaggerated ubiquitylation of BRCA1 protein, and improper intracellular localization. […] Basal-like breast cancers (BLBCs) are associated with an aggressive clinical course, resistance to chemotherapy, and typically lack expression of estrogen receptor (ER), progesterone receptor (PR), and epidermal growth factor receptor 2 (HER2). BLBCs account for 10-17% of all breast cancers, have few therapeutic options, and are considered the biggest unmet need in the treatment of breast cancer. Conversely, tumors which maintain expression of functional BRCA1 are almost uniformly luminal type cancers, and are accordingly associated with more indolent clinical courses, responsiveness to endocrine therapies, and improved survival.
As such, it is possible that an increase in BRCA1 expression would enable cellular differentiation and restore tumor suppressor function, resulting in delayed tumor growth and less aggressive, more treatable breast cancers. The long term goal of this proposal is to develop a novel prevention or therapeutic agent for breast cancer patients. To accomplish this goal, the overall objective of this proposal is to access the resources provided by the NIH Molecular Libraries Roadmap Initiative and the Molecular Libraries Probe Production Centers Network (MLPCN) to discover and develop new chemical activator probes that will increase BRCA1 expression and function.
NIH Molecular Libraries Probe Production Network [MLPCN]
NIH Chemical Genomics Center [NCGC]
PI Name: Lisa Harlan-Williams, University of Kansas Medical Center
5microl of MCF7-BRCA1-FFLuc cell suspension (400 cells/microl in phenol-red free MEM) are dispensed into Greiner white solid bottom 1536-well assay plates, yielding a final well density of 2000 cells/well. Plates are incubated for 2 hours at 37 degrees C in 5% humidified CO2 to allow cell attachment. Compounds are then transferred via Kalypsys pin tool equipped with 1536-pin array (10nl slotted pins, V&P Scientific, San Diego, CA). The plates are then incubated at 37 degrees C in 5% humidified CO2 for 48 hours. The NCGC in-house luciferase substrate reagent, Buglite, is then added (2.5microl) and plates incubated for 15 minutes, before being transferred to a ViewLux high-throughput CCD imager (PerkinElmer) wherein single end-point measurements of luminescence are acquired using a clear filter. The positive control compound, genistein, will be pinned into dedicated control columns on each plate, including a 16-point 1:3 titration in duplicate, as well as a 10microM maximum activation control, allowing for the normalization of screening activity. DMSO will be pinned into a separate column as a negative control.
All screening operations will be performed on a fully integrated robotic system (Kalypsys, San Diego, CA) containing one RX-130 and two RX-90 anthropomorphic robotic arms (Staubli, Duncan, SC). Library plates will be screened starting from the lowest and proceeding to the highest concentration. Vehicle-only plates, with DMSO being pin-transferred to columns 5-48, will be inserted uniformly at the beginning and the end of each library in order to monitor and record any shifts in the background, which can be affected by reagent dispensers or loss in enzyme activity over time. […]
For `Clc1ccccc1-c1nnn(Cc2ccc(-c3nn[nH]n3)cc2)n1`, the Potency was inconclusive: 35.5 µM [activator, single point].
For `COc1ccc(N2C(=O)c3ccccc3NC2(C)C)cc1`, the Potency was active: 10 µM.
For `COc1ccc(NC(=O)c2coc3ccccc23)cc1OC`, the Potency was active: 10 µM.
In the case of `CSc1ccc(C(=S)N2CCCC2)cc1`, the Potency is reported as inconclusive: 8.91 µM [activator, single point].
With `CC(=O)c1ccccc1C(=O)N1CCCC(C(=O)c2ccc(C(F)(F)F)cc2)C1` (stereo not drawn) the Potency was inconclusive: 35.5 µM [activator, single point].
With `c1ccc(Nc2nc(-c3ccccc3)ns2)cc1` the Potency was inconclusive: 0.631 µM [activator, full curve, poor fit].
With `CN(C)S(=O)(=O)c1cc(NC(=O)CNCCN2CCOCC2)ccc1Cl` the “activation” value was inactive: -3.24%.
With `COc1cc(/C=C/c2nc3ccccc3c(=O)[nH]2)cc(OC)c1OC` the “activation” value was inactive: -7.01%.
With `COC(=O)CSc1nc2ccc(C)cc2cc1C#N` the Potency was inconclusive: 2.82 µM [activator, partial curve, poor fit].
In the case of `O=C(N/N=C/C(Cl)=C\c1ccccc1)c1cccs1`, the Potency is reported as inconclusive: 1.26 µM [activator, partial curve, poor fit].
With `COc1ccccc1CCNC(=O)c1nc(-c2cccs2)no1` the Potency was active: 3.98 µM.
With `CCCCCCOc1ccc(OCC(O)CN2C(=O)NC(C)(C)C2=O)cc1` (stereo not drawn) the Potency was inconclusive: 15.8 µM [activator, partial curve, poor fit].
In the case of `O=C1NCCC/C1=N/Nc1cc(F)ccc1F`, the Potency is reported as inconclusive: 11.2 µM [activator, partial curve, poor fit].
With `O=C(NCc1ccccc1)c1cc2ccccc2o1` the Potency was inconclusive: 11.2 µM [activator, partial curve, poor fit].
For `COc1ccc2[nH]c3c(c2c1)CNCC3`, the “activation” value was inactive: 0.173%.
In the case of `COc1ccc(N=Nc2nc3cc(Br)c(Br)cc3n2C)c(OC)c1`, the “activation” value is reported as inactive: -27%.
For `O=c1c(-c2cnn(-c3ccccc3)c2)coc2cc(O)ccc12`, the Potency was inconclusive: 2.82 µM [activator, full curve, poor fit].
In the case of `O=S(=O)(c1ccc(F)cc1)n1ccc(-c2cnc(-c3ccccc3)s2)n1`, the Potency is reported as inconclusive: 6.31 µM [activator, partial curve, poor fit].
In the case of `Cc1ccc(NC(=O)/C=C/c2ccco2)cc1S(=O)(=O)N1CCCCCC1`, the “activation” value is reported as inactive: -31.6%.
With `O=C(Nc1ccc(N2CCCC2)cc1)c1cccc(F)c1` the Potency was inconclusive: 0.631 µM [activator, full curve, poor fit].
With `CC(Cl)C(=O)NC(=O)NC12CC3CC(CC(C3)C1)C2` (stereo not drawn) the “activation” value was inactive: -40.2%.
With `CC(C)Oc1ccc(C(=O)Nc2ccc(N(C)C)cc2)cc1` the Potency was inconclusive: 1.26 µM [activator, partial curve, poor fit].
With `O=C(NCCc1ccccc1)NC1CCCCC1` the Potency was inconclusive: 0.631 µM [activator, full curve, poor fit].
In the case of `CC(=O)N/N=C\c1ccccc1OC/C=C/c1ccccc1`, the Potency is reported as active: 2.82 µM.
In the case of `C#CCSc1nnc(-c2ccc([N+](=O)[O-])cc2)o1`, the Potency is reported as inconclusive: 35.5 µM [activator, single point].
For `CN(C)c1cccc(C(=O)n2cc(C(=O)c3cc(F)ccc3O)cn2)c1`, the Potency was inconclusive: 12.6 µM [activator, partial curve, poor fit].
In the case of `CCC1Nc2ncnc(N3CCc4ccccc4C3)c2N(Cc2ccc(Br)cc2)C1=O` (stereo not drawn), the “activation” value is reported as inactive: -63.6%.
In the case of `Cc1cc([N+](=O)[O-])nn1CC(=O)NNC(=S)Nc1ccc(F)cc1`, the “activation” value is reported as inactive: 0.26%.
In the case of `O=C(Nc1ccc(SC(F)F)cc1)c1ccc2c(=O)n3c(nc2c1)CCC3`, the Potency is reported as inconclusive: 0.794 µM [activator, full curve, poor fit].
In the case of `CCCCNc1ccc(C(=O)Nc2cccc(C)n2)cc1[N+](=O)[O-]`, the Potency is reported as inconclusive: 10 µM [activator, partial curve, poor fit].
With `COc1cccc(C(=O)COC(=O)c2cccs2)c1` the Potency was inconclusive: 10 µM [activator, partial curve, poor fit].
In the case of `CCN(CC)c1ccc(/C=N/NC(=O)Cc2cccs2)c(O)c1`, the “activation” value is reported as inactive: -75.3%.
For `O=C(COc1ccc2oc(-c3ccccc3)cc(=O)c2c1)Nc1ccccc1`, the “activation” value was inactive: -3.62%.
With `CCCC(=O)N/C(N)=N/c1nc2ccccc2o1` the Potency was inconclusive: 1.26 µM [activator, full curve, poor fit].
In the case of `Cc1cccc(NC(=O)c2oc3ccc(S(=O)(=O)N4CCOCC4)cc3c2C)c1C`, the “activation” value is reported as inactive: -61.7%.
For `CCOCC(=O)Nc1c(C(=O)Nc2ccc3c(c2)OCO3)oc2ccccc12`, the Potency was inconclusive: 8.91 µM [activator, partial curve, poor fit].
In the case of `CCOc1cccc(C(=O)Nc2ccc3[nH]ncc3c2)c1`, the Potency is reported as inconclusive: 25.1 µM [activator, single point].
In the case of `CN1C(=O)/C(=C/c2ccc(OCc3ccccc3F)cc2)NC1=S`, the “activation” value is reported as inactive: 6.48%.
For `CC(=O)Oc1ccc(-c2csc(Nc3ccc(Cl)cn3)n2)cc1`, the Potency was inconclusive: 1.26 µM [activator, partial curve, poor fit].
In the case of `CCc1c(C)nc(SCC(=O)N2CCCCC2CC)[nH]c1=O` (stereo not drawn), the “activation” value is reported as inactive: -22.3%.
For `N#Cc1ccsc1NC(=O)COC(=O)c1ccc(NC(N)=O)cc1`, the Potency was inconclusive: 2.24 µM [activator, full curve, poor fit].
With `Cc1cc(C)n(-c2nnc(NC34CC5CC(CC(C5)C3)C4)nn2)n1` the Potency was active: 2.51 µM.
With `O=C(Nc1ccc(Cl)cc1)/C(=C/c1cccc(O)c1)c1nc2ccccc2s1` the “activation” value was inactive: -93.7%.
With `Cc1ccccc1S(=O)(=O)c1cc2ccccc2nc1N` the “activation” value was inactive: -25.2%.
In the case of `Cc1nc2sc(-c3ccccc3)cc2c(=O)n1-n1cccc1`, the Potency is reported as inconclusive: 0.794 µM [activator, full curve, poor fit].
In the case of `O=S(=O)(Nc1cccc2cccnc12)c1ccc(S(=O)(=O)N2CCCC2)cc1`, the “activation” value is reported as inactive: -66.8%.
With `O=C(N/N=C/c1ccc(O)cc1O)c1ccncc1` the “activation” value was inactive: -41.1%.
For `c1cncc(-c2ccc3[nH]ccc3c2)c1`, the Potency was inconclusive: 14.1 µM [activator, partial curve, poor fit].
